Out of some 340,000 compounds screened, about 6,900 (2%) were called active. Cut-off read from the data, not from the text of the source: active = inhibition above about 30%; inactive = below that, where a call was filed. The entries are a selection whose mix differs from that of the whole data set. Where no call is shown, the source filed none.
What follows are compounds tested against D(2) dopamine receptor (Homo sapiens) (UniProt P14416) (assay: HTS Assay for Allosteric Antagonists of the Human D2 Dopamine Receptor: Primary Screen for Antagonists). Conditions: HEK293 TREx D2 cells, calcium flux, dopamine EC80; at 10 µM; stronger effect = higher value.
UniProt P14416, sequence (P14416 whole entry, looked up): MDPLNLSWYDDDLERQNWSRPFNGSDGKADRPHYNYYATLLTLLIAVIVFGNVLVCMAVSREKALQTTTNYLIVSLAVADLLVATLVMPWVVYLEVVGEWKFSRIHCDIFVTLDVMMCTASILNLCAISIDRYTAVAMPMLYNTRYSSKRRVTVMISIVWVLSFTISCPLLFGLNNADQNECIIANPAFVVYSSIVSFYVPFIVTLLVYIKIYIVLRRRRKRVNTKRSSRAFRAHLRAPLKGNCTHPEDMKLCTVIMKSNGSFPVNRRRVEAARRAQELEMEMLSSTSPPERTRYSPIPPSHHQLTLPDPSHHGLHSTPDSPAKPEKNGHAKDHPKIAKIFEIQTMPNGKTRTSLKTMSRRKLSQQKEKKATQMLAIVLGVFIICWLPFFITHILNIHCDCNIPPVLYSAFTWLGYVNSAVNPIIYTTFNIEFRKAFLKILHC
Method in brief: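 Calcium mobilization kinetics were recorded at 1 s intervals in tetracycline-induced HEK293 T-REx D2 cells, first for 180 s after compound addition and then 180 s after EC80 dopamine.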
Note: 0% is about no effect.

Structure (SMILES)	inhibition
COc1ccc(CN2CC=C(c3ccc(F)cc3)CC2)cc1Br	active: 62.9%
NC(=O)c1ccc(NC(=O)c2cccn(Cc3ccccc3)c2=O)cc1	-2.97%
Cc1ccc(-n2c(/C=C/c3cccc(C(F)(F)F)c3)nc3ccccc3c2=O)cc1	11.4%
Cc1c(C(c2ccc(O)cc2)c2c(O)c3ccccc3oc2=O)c(=O)n(-c2ccccc2)n1C (configuration not stated)	-9.99%
COc1cccc(CN2CC=C(c3ccc(F)cc3)CC2)c1	active: 72.4%
CCOc1ccc(CN2C(=O)c3ccccc3Sc3ccc(C(=O)N4CCC5(CC4)OCCO5)cc32)cc1	-1.33%
CCSc1nnc(NC(=O)c2cccn(Cc3ccc(Cl)cc3)c2=O)s1	-13.9%
Cc1cccc(-n2c(/C=C/c3cccc4ccccc34)nc3ccccc3c2=O)c1	7.3%
O=c1c2ccccc2nc(/C=C\c2cccc(Br)c2)n1-c1ccc(O)cc1	26.7%
CCn1cc(C=C2C(=O)NC(=O)NC2=O)c2ccccc21	active: 37.9%
Cc1ccc(-n2c(/C=C/c3ccccc3)nc3ccccc3c2=O)cc1C	-2.42%
Cc1ccc2scc(N3CCN(C)CC3)c(=O)c2c1	-10.6%
Cc1ccsc1C(=O)C1CCCN(Cc2cnc(N3CCCC3)s2)C1 (configuration not stated)	active: 38.9%
CC(=O)c1ccc(NC(=O)c2sc3nc4c(cc3c2N)N2CCC4CC2)cc1	20.7%
CN1CCC(OC(=O)C2c3ccccc3Oc3ccccc32)CC1	active: 33.2%
COc1ccc(OC)c(CN2CCCC(C(=O)c3sccc3C)C2)c1 (configuration not stated)	active: 51.2%
Cc1cccc(CN2C(=O)CN=C(c3ccccc3Cl)c3cc(Cl)ccc32)c1	-12.4%
COc1cc(C)cc(CN2CC=C(c3ccccc3)CC2)c1O	active: 87.9%
CCNC(=O)NC(=O)C(C)OC(=O)c1c(C)nn(Cc2ccccc2)c1Cl (configuration not stated)	active: 40.4%
CN1C[C@H](CO)C[C@@H]2c3cccc4[nH]cc(c34)C[C@H]21	active: 95.8%
COc1ccccc1N1CCN(Cc2ccc(SC)cc2)CC1	active: 78.8%

Structure (SMILES)	inhibition
Cc1cc(O)c(CN2CCN(c3ccccc3)CC2)cc1C	active: 49.3%
O=C(Nc1ccc(OC(F)(F)F)cc1)c1cccn(Cc2ccccc2Cl)c1=O	0.249%
Cc1cccc(N2CCN(Cc3ccc4c(c3)OCO4)CC2)c1C	active: 66.2%
O=C(c1ccc2c(c1)N(Cc1c(F)cccc1Cl)C(=O)c1ccccc1S2)N1CCC2(CC1)OCCO2	-11%
COc1ccc(-c2nn3c(=O)cc(CN4CCN(C(=O)COc5ccc(F)cc5)CC4)nc3s2)cc1	-7.65%
Cc1oc(-c2ccc(Cl)cc2)nc1CN1C(=O)CN=C(c2ccccc2)c2cc(Cl)ccc21	-10.9%
CCc1ccc(OCC(=O)N2CCN(CCc3ccccn3)CC2)cc1	12.8%
COc1ccc(-c2nc(CN3C(=O)CN=C(c4ccccc4)c4ccccc43)c(C)o2)cc1OC	-10.5%
OC(CN1CCC(c2c[nH]c3ccccc23)CC1)C(F)(F)F (configuration not stated)	active: 77%
O=C1CN=C(c2ccccc2)c2cc(Cl)ccc2N1Cc1ccc(Cl)cc1	-11%
COc1ccccc1-n1c(/C=C/c2ccccc2)nc2ccccc2c1=O	10.8%
Cc1ccccc1Cn1cccc(C(=O)Nc2cc(Cl)ccc2C#N)c1=O	8.82%
Cc1cc(NC(=O)c2cccn(Cc3cccc([N+](=O)[O-])c3)c2=O)no1	20.2%
O=[N+]([O-])c1ccc(CN2CC=C(c3ccccc3)CC2)cc1	active: 89.1%
CCOc1ccc2nc(NC(=O)c3cccn(Cc4ccccc4C)c3=O)sc2c1	-0.0666%
CCC(=O)N1CC(=O)Nc2ccc(C)cc2C1c1ccc(F)cc1 (configuration not stated)	-6.4%
CN1C(=O)CN=C(c2ccc(Cl)cc2)c2cc(Cl)ccc21	active: 34.3%
O=C(/C=C/c1c[nH]c2ccccc12)c1c(O)n(CCc2ccccc2)c(=O)[nH]c1=O	active: 36.6%
CC(=O)OC1(c2ccccc2)CCN(C2CCCCC2)CC1C (configuration not stated)	active: 53.2%
CN1CCN(c2csc3ccc(F)cc3c2=O)CC1	20.6%
CSc1ccc(C(c2c(O)c3ccccc3oc2=O)c2c(C)n(C)n(-c3ccccc3)c2=O)cc1 (configuration not stated)	-4.37%

Structure (SMILES)	inhibition
N#Cc1cc2c(nc1SCC(=O)Nc1cccc(F)c1)C1CCN2CC1	-1.11%
OC(COCc1ccc(Cl)cc1)CN1CC=C(c2ccccc2)CC1 (configuration not stated)	active: 84.7%
CCOc1ccc(-n2c(/C=C/c3ccccc3)nc3ccccc3c2=O)cc1	17.7%
COc1ccc(C2CN(C)CC2C(=O)c2ccc(F)cc2)cc1Cl (configuration not stated)	active: 69%
COc1ccccc1N=Cc1c(O)n(C)c(=O)n(C)c1=O	active: 34.9%
O=C(Nc1ccc2c(c1)OCCO2)c1cccn(Cc2cccc([N+](=O)[O-])c2)c1=O	13.9%
N#Cc1cc([N+](=O)[O-])ccc1NC(=O)c1cccn(Cc2cccc(F)c2)c1=O	-2.03%
O=c1c2ccccc2nc(-c2ccco2)n1-c1nccs1	active: 30.2%
CCCCc1nc2ccccc2c(=O)n1-c1cccc(OC)c1	4.72%
Nc1c(C(=O)Nc2ccc(OC(F)(F)F)cc2)sc2nc3c(cc12)N1CCC3CC1	-14.3%
O=C(c1ccc2c(=O)n(Cc3ccc4c(c3)OCO4)c(=S)[nH]c2c1)N1CCC2(CC1)OCCO2	active: 43.9%
Cc1ccc(NC(=O)CN2C(=O)CN=C(c3ccccc3)c3ccccc32)c(C)c1	1.01%
O=C(c1ccc2c(c1)N(Cc1ccc(F)cc1Cl)C(=O)c1ccccc1S2)N1CCC2(CC1)OCCO2	2.18%
CC[C@H]1C2C[C@H]3[C@@H]4N(C)c5ccccc5C45C[C@H](C2[C@H]5O)N3[C@@H]1O (some centres not stated)	active: 35.8%
Cn1c(=O)n(C)c2cc(CNCCc3ccccc3F)ccc21	-0.538%
Oc1cc2c(cc1CN1CCN(c3ccc(F)cc3)CC1)OCO2	active: 57.8%
C[C@@H]1C(=O)O[C@@H]2[C@H](O)C34[C@@H]5OC(=O)C3(O[C@H]3OC(=O)[C@H](O)C34[C@H](C(C)(C)C)[C@H]5O)[C@@]12O (some centres not stated)	active: 37.4%
O=C1CC(c2ccccc2Br)c2c(c3ccccc3oc2=O)O1 (configuration not stated)	-0.956%
Cc1ccc(-n2c(/C=C/c3ccccc3)nc3ccccc3c2=O)cc1Cl	0.184%
Cc1cccc(C)c1OCC(=O)Nc1ccc(Cl)cc1C(=O)c1ccccc1	-5.27%
